Laboratory results taken from the supplement of paper PMC4967469.
The IC50 comes from the fitted curve, where viability falls to half of the control; a fit beyond the top or the lowest dose is shown as a bound at that dose. AUC is the area under the same curve over the 256-fold range up to the top dose, as a fraction; it is 1 without any effect and falls as sensitivity rises. For some of these results: Any top dose called inferred was derived from the fitted curves, not read from the paper.

Columns and labels:
Experiment in all cases: Viability of human cancer cell lines after 72 h of drug (GDSC screen)
17-AAG = compound: C=CCNC1=C2C[C@@H](C)C[C@H](OC)[C@H](O)[C@@H](C)/C=C(\C)[C@H](OC(N)=O)[C@@H](OC)/C=C\C=C(/C)C(=O)NC(=CC1=O)C2=O [17-AAG]; conditions: top dose 1 µM
Experimental: (§1)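 Human cancer cell lines in 384-well plates, medium with 10% serum, drug for 72 h over a 256-fold dose range (nine 2-fold or five 4-fold steps up to the top dose). Adherent lines were fixed and stained with the nucleic acid dye Syto60, suspension lines read with resazurin; signal relative to control wells, capped at 0 and 100%. One two-parameter sigmoid per drug and line, fitted in a mixed model over all curves with the slope shared within a line.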

CCT018159 = compound: CCc1cc(-c2n[nH]c(C)c2-c2ccc3c(c2)OCCO3)c(O)cc1O [CCT018159]; conditions: top dose 10 µM; top dose inferred
Experimental: as §1

BIX02189 = compound: CN(C)Cc1cccc(N=C(c2ccccc2)c2c(O)[nH]c3cc(C(=O)N(C)C)ccc23)c1 [BIX02189]; conditions: top dose 20 µM; top dose inferred
Experimental: as §1

Dimethyloxalylglycine = compound: COC(=O)CNC(=O)C(=O)OC [Dimethyloxalylglycine]; conditions: top dose 4000 µM; top dose inferred
Experimental: as §1

Doxorubicin = compound: COc1cccc2c1C(=O)c1c(O)c3c(c(O)c1C2=O)C[C@@](O)(C(=O)CO)C[C@@H]3O[C@H]1C[C@H](N)[C@H](O)[C@H](C)O1 [Doxorubicin]; conditions: top dose 1.024 µM
Experimental: as §1

OSI-027 = compound: COc1cccc2cc(-c3nc([C@H]4CC[C@H](C(=O)O)CC4)n4ncnc(N)c34)[nH]c12 [OSI-027]; conditions: top dose 20 µM
Experimental: as §1

Vismodegib = compound: CS(=O)(=O)c1ccc(C(=O)Nc2ccc(Cl)c(-c3ccccn3)c2)c(Cl)c1 [Vismodegib]; conditions: top dose 10 µM; top dose inferred
Experimental: as §1

VX-11e = compound: Cc1cnc(Nc2ccc(F)cc2Cl)nc1-c1c[nH]c(C(=O)N[C@H](CO)c2cccc(Cl)c2)c1 [VX-11e]; conditions: top dose 5.12 µM; top dose inferred
Experimental: as §1

TG101348 = compound: Cc1cnc(Nc2ccc(OCCN3CCCC3)cc2)nc1Nc1cccc(S(=O)(=O)NC(C)(C)C)c1 [TG101348]; conditions: top dose 10.24 µM
Experimental: as §1

UNC1215 = compound: O=C(c1ccc(C(=O)N2CCC(N3CCCC3)CC2)c(Nc2ccccc2)c1)N1CCC(N2CCCC2)CC1 [UNC1215]; conditions: top dose 1 µM; top dose inferred
Experimental: as §1

## MC-IXC (neuroblastoma, adherent)
17-AAG
  AUC: 0.919
  IC50: 0.788 µM
CCT018159
  AUC: 0.953
  IC50: > 10 µM
BIX02189
  AUC: 0.996
  IC50: > 20 µM
Dimethyloxalylglycine
  AUC: 0.347
  IC50: 106 µM
Doxorubicin
  AUC: 0.438
  IC50: 0.0454 µM
OSI-027
  AUC: 0.233
  IC50: 0.277 µM
Vismodegib
  AUC: 0.94
  IC50: 9.56 µM
VX-11e
  AUC: 0.996
  IC50: > 5.12 µM
TG101348
  AUC: 0.931
  IC50: 8.97 µM
UNC1215
  AUC: 0.996
  IC50: > 1 µM

## ME-1 (acute myeloid leukaemia, suspension)
17-AAG
  AUC: 0.982
  IC50: > 1 µM
CCT018159
  AUC: 0.983
  IC50: > 10 µM
BIX02189
  AUC: 0.932
  IC50: > 20 µM
Dimethyloxalylglycine
  AUC: 0.512
  IC50: 271 µM
Doxorubicin
  AUC: 0.962
  IC50: > 1.02 µM
OSI-027
  AUC: 0.618
  IC50: 2.7 µM
Vismodegib
  AUC: 0.987
  IC50: > 10 µM
VX-11e
  AUC: 0.806
  IC50: 2.82 µM
TG101348
  AUC: 0.813
  IC50: 6.01 µM
UNC1215
  AUC: 0.986
  IC50: > 1 µM

## ME-180 (cervix, adherent)
17-AAG
  AUC: 0.571
  IC50: 0.0986 µM
CCT018159
  AUC: 0.885
  IC50: > 10 µM
BIX02189
  AUC: 0.904
  IC50: > 20 µM
Dimethyloxalylglycine
  AUC: 0.491
  IC50: 235 µM
Doxorubicin
  AUC: 0.624
  IC50: 0.143 µM
OSI-027
  AUC: 0.195
  IC50: 0.147 µM
Vismodegib
  AUC: 0.934
  IC50: > 10 µM
VX-11e
  AUC: 0.969
  IC50: > 5.12 µM
TG101348
  AUC: 0.754
  IC50: 3.58 µM
UNC1215
  AUC: 0.974
  IC50: > 1 µM

## MEG-01 (chronic myeloid leukaemia, suspension)
17-AAG
  AUC: 0.952
  IC50: > 1 µM
CCT018159
  AUC: 0.947
  IC50: > 10 µM
BIX02189
  AUC: 0.696
  IC50: 4.28 µM
Dimethyloxalylglycine
  AUC: 0.597
  IC50: 454 µM
Doxorubicin
  AUC: 0.678
  IC50: 0.195 µM
OSI-027
  AUC: 0.318
  IC50: 0.402 µM
Vismodegib
  AUC: 0.94
  IC50: > 10 µM
VX-11e
  AUC: 0.568
  IC50: 0.486 µM
TG101348
  AUC: 0.581
  IC50: 1.05 µM
UNC1215
  AUC: 0.983
  IC50: > 1 µM

## MEL-JUSO (melanoma, adherent)
17-AAG
  AUC: 0.312
  IC50: 0.0173 µM
CCT018159
  AUC: 0.942
  IC50: > 10 µM
BIX02189
  AUC: 0.959
  IC50: > 20 µM
Dimethyloxalylglycine
  AUC: 0.533
  IC50: 310 µM
Doxorubicin
  AUC: 0.3
  IC50: 0.0162 µM
OSI-027
  AUC: 0.478
  IC50: 1.08 µM
Vismodegib
  AUC: 0.984
  IC50: > 10 µM
VX-11e
  AUC: 0.746
  IC50: 1.78 µM
TG101348
  AUC: 0.838
  IC50: 8.14 µM
UNC1215
  AUC: 0.982
  IC50: > 1 µM

## MFH-ino (soft tissue, adherent)
17-AAG
  AUC: 0.7
  IC50: 0.255 µM
CCT018159
  AUC: 0.874
  IC50: > 10 µM
BIX02189
  AUC: 0.968
  IC50: > 20 µM
Dimethyloxalylglycine
  AUC: 0.626
  IC50: 595 µM
Doxorubicin
  AUC: 0.171
  IC50: 0.00517 µM
OSI-027
  AUC: 0.691
  IC50: 4.74 µM
Vismodegib
  AUC: 0.983
  IC50: > 10 µM
VX-11e
  AUC: 0.957
  IC50: > 5.12 µM
TG101348
  AUC: 0.929
  IC50: > 10.2 µM
UNC1215
  AUC: 0.981
  IC50: > 1 µM

## MHH-PREB-1 (B-cell leukaemia, suspension)
17-AAG
  AUC: 0.989
  IC50: > 1 µM
CCT018159
  AUC: 0.894
  IC50: 9.86 µM
BIX02189
  AUC: 0.7
  IC50: 4.26 µM
Dimethyloxalylglycine
  AUC: 0.395
  IC50: 133 µM
Doxorubicin
  AUC: 0.698
  IC50: 0.215 µM
OSI-027
  AUC: 0.143
  IC50: 0.114 µM
Vismodegib
  AUC: 0.985
  IC50: > 10 µM
VX-11e
  AUC: 0.951
  IC50: > 5.12 µM
TG101348
  AUC: 0.898
  IC50: > 10.2 µM
UNC1215
  AUC: 0.978
  IC50: > 1 µM

## MOLP-8 (myeloma, suspension)
17-AAG
  AUC: 0.948
  IC50: > 1 µM
CCT018159
  AUC: 0.932
  IC50: > 10 µM
BIX02189
  AUC: 0.85
  IC50: 14.2 µM
Dimethyloxalylglycine
  AUC: 0.342
  IC50: 92.5 µM
Doxorubicin
  AUC: 0.533
  IC50: 0.0787 µM
OSI-027
  AUC: 0.097
  IC50: < 0.0781 µM
Vismodegib
  AUC: 0.986
  IC50: > 10 µM
VX-11e
  AUC: 0.744
  IC50: 1.55 µM
TG101348
  AUC: 0.382
  IC50: 0.307 µM
UNC1215
  AUC: 0.984
  IC50: > 1 µM

## MONO-MAC-6 (acute myeloid leukaemia, suspension)
17-AAG
  AUC: 0.774
  IC50: 0.415 µM
CCT018159
  AUC: 0.768
  IC50: 3.97 µM
BIX02189
  AUC: 0.749
  IC50: 6.83 µM
Dimethyloxalylglycine
  AUC: 0.436
  IC50: 165 µM
Doxorubicin
  AUC: 0.646
  IC50: 0.167 µM
OSI-027
  AUC: 0.106
  IC50: < 0.0781 µM
Vismodegib
  AUC: 0.954
  IC50: > 10 µM
VX-11e
  AUC: 0.937
  IC50: > 5.12 µM
TG101348
  AUC: 0.336
  IC50: 0.218 µM
UNC1215
  AUC: 0.969
  IC50: > 1 µM

## MPP-89 (mesothelioma, adherent)
17-AAG
  AUC: 0.709
  IC50: 0.294 µM
CCT018159
  AUC: 0.961
  IC50: > 10 µM
BIX02189
  AUC: 0.807
  IC50: 14.2 µM
Dimethyloxalylglycine
  AUC: 0.667
  IC50: 847 µM
Doxorubicin
  AUC: 0.696
  IC50: 0.273 µM
OSI-027
  AUC: 0.794
  IC50: 12.6 µM
Vismodegib
  AUC: 0.964
  IC50: > 10 µM
VX-11e
  AUC: 0.943
  IC50: > 5.12 µM
TG101348
  AUC: 0.826
  IC50: 8.9 µM
UNC1215
  AUC: 0.976
  IC50: > 1 µM

## MRK-nu-1 (breast, suspension)
17-AAG
  AUC: 0.988
  IC50: > 1 µM
CCT018159
  AUC: 0.973
  IC50: > 10 µM
BIX02189
  AUC: 0.946
  IC50: > 20 µM
Dimethyloxalylglycine
  AUC: 0.733
  IC50: 1080 µM
Doxorubicin
  AUC: 0.438
OSI-027
  AUC: 0.126
  IC50: 0.0933 µM
Vismodegib
  AUC: 0.979
  IC50: > 10 µM
VX-11e
  AUC: 0.974
  IC50: > 5.12 µM
TG101348
  AUC: 0.988
  IC50: > 10.2 µM
UNC1215
  AUC: 0.989
  IC50: > 1 µM

## MS-1 (small cell lung carcinoma, suspension)
17-AAG
  AUC: 0.963
  IC50: > 1 µM
CCT018159
  AUC: 0.959
  IC50: > 10 µM
BIX02189
  AUC: 0.939
  IC50: > 20 µM
Dimethyloxalylglycine
  AUC: 0.695
  IC50: 824 µM
Doxorubicin
  AUC: 0.706
  IC50: 0.227 µM
OSI-027
  AUC: 0.367
  IC50: 0.56 µM
Vismodegib
  AUC: 0.976
  IC50: > 10 µM
VX-11e
  AUC: 0.981
  IC50: > 5.12 µM
TG101348
  AUC: 0.754
  IC50: 3.12 µM
UNC1215
  AUC: 0.988
  IC50: > 1 µM

## NB12 (neuroblastoma, adherent)
17-AAG
  AUC: 0.833
  IC50: 0.987 µM
CCT018159
  AUC: 0.944
  IC50: > 10 µM
BIX02189
  AUC: 0.972
  IC50: > 20 µM
Dimethyloxalylglycine
  AUC: 0.356
  IC50: 86.7 µM
Doxorubicin
  AUC: 0.702
  IC50: 0.292 µM
OSI-027
  AUC: 0.788
  IC50: 12.2 µM
Vismodegib
  AUC: 0.958
  IC50: > 10 µM
VX-11e
  AUC: 0.973
  IC50: > 5.12 µM
TG101348
  AUC: 0.769
  IC50: 5.21 µM
UNC1215
  AUC: 0.977
  IC50: > 1 µM
